# Reference: article PMC4336329 (PLoS ONE, 2015)
# Screen size: about 310,000 compounds; about 14,000 (4.5%) showed an effect of 50% or more. The effect is printed as a negative number. Some of the results follow.
# Target: human ether-à-go-go-related gene (hERG) potassium channel (human, UniProt Q12809)
# Assay: primary screen, population patch clamp on CHO cells stably expressing hERG
# 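Further: peak tail current of the secondary pulse compared with the same well before compound.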
# Chain of human ether-à-go-go-related gene (hERG) potassium channel (Q12809 whole entry, looked up): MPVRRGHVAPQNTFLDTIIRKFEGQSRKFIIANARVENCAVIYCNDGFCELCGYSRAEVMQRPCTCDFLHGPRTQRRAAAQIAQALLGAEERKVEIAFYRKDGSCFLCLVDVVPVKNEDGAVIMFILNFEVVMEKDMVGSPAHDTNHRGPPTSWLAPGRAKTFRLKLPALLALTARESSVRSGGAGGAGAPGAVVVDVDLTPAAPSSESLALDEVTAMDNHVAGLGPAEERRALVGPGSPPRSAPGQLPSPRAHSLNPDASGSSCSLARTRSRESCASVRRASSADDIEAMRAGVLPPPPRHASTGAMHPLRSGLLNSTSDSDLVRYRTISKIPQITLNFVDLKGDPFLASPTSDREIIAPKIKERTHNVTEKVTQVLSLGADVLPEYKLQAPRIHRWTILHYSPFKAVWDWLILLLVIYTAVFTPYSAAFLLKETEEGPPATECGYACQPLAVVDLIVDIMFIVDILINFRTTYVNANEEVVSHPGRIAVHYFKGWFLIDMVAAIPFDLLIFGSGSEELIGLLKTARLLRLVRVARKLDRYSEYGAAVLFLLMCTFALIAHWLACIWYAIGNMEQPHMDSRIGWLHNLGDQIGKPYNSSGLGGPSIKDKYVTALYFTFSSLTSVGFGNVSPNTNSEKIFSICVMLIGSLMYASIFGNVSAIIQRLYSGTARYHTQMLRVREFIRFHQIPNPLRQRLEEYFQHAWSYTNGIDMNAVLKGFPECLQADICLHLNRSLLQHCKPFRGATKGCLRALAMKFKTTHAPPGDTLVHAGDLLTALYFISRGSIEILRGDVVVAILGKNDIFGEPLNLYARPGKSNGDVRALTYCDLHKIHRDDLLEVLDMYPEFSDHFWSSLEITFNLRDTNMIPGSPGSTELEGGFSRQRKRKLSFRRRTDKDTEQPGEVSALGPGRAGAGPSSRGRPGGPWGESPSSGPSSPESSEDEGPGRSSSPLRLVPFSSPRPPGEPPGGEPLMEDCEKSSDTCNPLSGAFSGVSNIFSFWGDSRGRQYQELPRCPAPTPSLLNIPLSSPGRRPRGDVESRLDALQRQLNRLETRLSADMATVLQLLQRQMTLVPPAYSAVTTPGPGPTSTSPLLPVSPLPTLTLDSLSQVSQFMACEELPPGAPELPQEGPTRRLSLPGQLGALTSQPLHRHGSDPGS
row,Compound,"hERG current change (%, negative = inhibition) at 10uM [%]"
1,COc1ccc(C(=S)N2CCC(C(N)=O)CC2)cc1Br,9.69
2,O=C(COC(=O)c1c[nH]c2ccccc12)Nc1ccc(F)cc1,-12.5
3,Cc1ccc(C(=O)Oc2cc(C)n(C)c(=O)c2)cc1,-2.14
4,COc1ccc(/C=N/NC(=O)CCc2nc3ccccc3[nH]2)cc1,-21.1
5,CN(C)S(=O)(=O)c1cccc(C(=O)Nc2cccnc2)c1,-0.761
6,O=C(N=C1c2ccccc2CN1c1ccc(F)cc1)c1ccc(Cl)nc1,-6.44
7,CC1CC(C)CN(CCCNC(=O)c2c(O)nc3ccccn3c2=O)C1 (stereo not shown),6.75
8,CN(C)c1ccc(CNc2ccc3c(c2)ncn3C(C)(C)C)cc1,-27.2
9,COc1ccc(NC(=O)CCCn2nc(C)c3c(C)n(-c4ccccc4)nc3c2=O)cc1OC,16.5
10,Nc1c(C(=O)c2ccccc2)sc2nsc(SCCN3CCCC3)c12,-38.2
11,COc1ccc(CCNC(=O)Cn2nnc(-c3ccc(N4CCOCC4)cc3)n2)cc1OC,0.8
12,COCCNC(=O)C(c1ccc(C)o1)N(Cc1ccc(F)cc1)C(=O)Cn1nnc2ccccc21 (stereo not shown),4.34
13,COc1ccc(CCNC(=O)Cc2cccs2)cc1OC,25.2
14,COC(=O)c1c(C(=O)NCc2ccccc2)ncn1CC(O)COc1ccccc1 (stereo not shown),-8.63
15,COc1ccc(C(CCN2CCCC(C)C2)c2c(OC)cc(OC)c3c2OC(=O)CC3c2cc(OC)c(OC)c(OC)c2)cc1 (stereo not shown),-20.6
16,Cc1ccc(OCC(=O)N2CCCC(N3CCN(c4ccc(F)cc4)CC3)C2)cc1 (stereo not shown),-101
17,O=C(C[n+]1ccccc1)N/N=C/c1ccccc1F.[Cl-],15.8
18,CC(C)c1c(C(=O)N/N=C/c2ccncc2)nnn1-c1nonc1N,-17.8
19,Cc1ccc(-c2nnc(CCC(=O)N(C)Cc3nccs3)o2)s1,-5.14
20,CCCCn1c(=O)c(CCC(=O)OCC(=O)Nc2cccc3ccccc23)nc2ccccc21,-17.9
21,CCCN(CC(=O)Nc1ccc(F)c(F)c1F)C(=O)c1ccc(N2CCCC2=O)cc1,-4.37
22,O=C(Nc1cnc2sccn2c1=O)c1ccc(Cl)cc1Cl,12.8

row,Compound,"hERG current change (%, negative = inhibition) at 10uM [%]"
1,O=C(Oc1ccccc1N1C(=O)C2CCCCC2C1=O)c1ccccc1 (stereo not shown),30.5
2,Cc1nc2nc(C)c(CCC(=O)NCCC3=CCCCC3)c(C)n2n1,4.49
3,CCOCCn1c(CN(Cc2ccccc2)Cc2ccccc2)nc2c1c(=O)n(C)c(=O)n2C,-45.6
4,Cc1nnc(SCC(=O)N2CCN(c3ccccc3)CC2)n(N)c1=O,7.02
5,CCCn1c(SCC(=O)Nc2ccc(S(=O)(=O)N(C)C)cc2)n[nH]c1=O,3.64
6,C=C(C)CSc1nnc(-c2cccc(S(=O)(=O)N(C)C)c2)n1-c1cc(OC)ccc1OC,-47.4
7,Cc1cc(NC(=O)C2C3C(=O)N(Cc4ccc(Cl)cc4)C(C(=O)NC4CCCCC4)C34C=CC2(C)O4)no1 (stereo not shown),-13
8,Cc1cccc(-n2c(-c3csc(C)c3)n[nH]c2=S)c1,17.4
9,O=C(NCC1CCCO1)c1cc2ccccc2nc1Cl (stereo not shown),9.17
10,CN1CCN(Cc2cccc3ncccc23)CC1CCO (stereo not shown),13.8
11,COC(=O)Cc1ccc(NC(=S)N2CCCCC2C)cc1 (stereo not shown),-12
12,CCOC(=O)c1ccc(OS(=O)(=O)c2ccccc2)c(OC)c1,0.607
13,Cc1cccc(C)c1OCC(=O)NC1CC1,16.5
14,O=C(COC(=O)/C=C/c1ccc(F)cc1)Nc1ccc(Cl)cn1,36.3
15,O=C(NC12CC3CC(CC(C3)C1)C2)c1ccc([N+](=O)[O-])cc1,-9.32
16,CN(CC(=O)Nc1ccccc1C(F)(F)F)C(=O)C1CC1,10.3
17,CC(C(=O)N1CCOCCOCCOCC1)N1C(=O)c2ccccc2C1=O (stereo not shown),15.7
18,S=C(Nc1ccc(Br)cc1Cl)N1CCCC1,14.7
19,O=S(=O)(Cc1ccccc1)N1CCc2ccccc2C1,10.7
20,Cc1ccc(NC(=O)OCc2cccs2)cc1,2.35
21,CCOC(=O)C1=C(COc2ccccc2)NC(=O)NC1c1ccc2ccccc2c1 (stereo not shown),-12.3
22,COC(=O)c1sccc1-c1ccc(C(=O)Nc2cccnc2)o1,8.97

row,Compound,"hERG current change (%, negative = inhibition) at 10uM [%]"
1,Cc1ccc([N+](=O)[O-])c(NC2OC(CO)C(O)C2O)c1 (stereo not shown),24.8
2,CN(CC(=O)NCCc1ccccc1)S(=O)(=O)c1cnc[nH]1,18.5
3,COC(=O)c1c(-c2ccc(F)cc2)csc1NC(=O)C1CCCO1 (stereo not shown),-3.35
4,N/C(=N\OC(=O)c1ccc(Cl)cc1)c1ccccn1,-3.7
5,Nc1ccc(-c2nc3cc(N)ccc3s2)cc1,1.12
6,O=C(CCc1nnc(CCCCc2ccccc2)o1)NCCN1CCCCC1=O,18.2
7,O=C(C1CCC(Cn2c(=S)[nH]c3ccccc3c2=O)CC1)N1CCOCC1 (stereo not shown),-4.29
8,N#C/C(=C\c1ccc(N2CCOCC2)o1)c1nc2ccccc2[nH]1,-24.5
9,Cc1sc2nc(SCC(=O)N3CC(C)OC(C)C3)n(C)c(=O)c2c1C (stereo not shown),0.428
10,O=C(O)c1[nH]c2ccc(Br)cc2c1CCN1C(=O)c2cccc([N+](=O)[O-])c2C1=O,4.58
11,Cc1ccc(N2C(=N)/C(=C3/Nc4ccccc4S3)C(c3ccccc3)C2=O)cc1 (stereo not shown),25.7
12,COc1ccc(N2CCOCC2)c(NC(=O)c2ccc3c(c2)OCO3)c1,-15.3
13,O=C(CSCC(=O)Nc1cccc([N+](=O)[O-])c1)Nc1ccccc1,-21.2
14,CNc1nc2c(C)cccn2c(=O)c1C=NCc1ccccc1,0.873
15,COc1cc2c(cc1OC)C(c1ccccc1)N(C(=O)c1ccccc1)CC2 (stereo not shown),-13.1
16,CC1(C)CC(=O)C2=C(C1)OC(N)=C(C#N)C2c1cc2c(cc1[N+](=O)[O-])OCO2 (stereo not shown),-11.6
17,CC1CCN(c2ccc3nnc(CCC(=O)Nc4cc(F)ccc4F)n3n2)CC1,-37.5
18,COc1ccccc1CN1CCNC(=O)C1CC(=O)NCCOc1cccnc1 (stereo not shown),-2.59
19,Cc1nn(Cc2c(Cl)cccc2Cl)c(C)c1NC(=O)c1cn(-c2ccccc2)nc1-c1ccccc1,0.041
20,O=S(=O)(N1CCCCC1)N1CCN(c2ccc(F)cc2)CC1,-35.9
21,COc1ccc(OC)c(NC(=O)C(=O)NCc2ccncc2)c1,-12.2
22,Cc1cnc(C(=O)OCC(=O)Nc2ccc(Br)c(C)c2)cn1,12.8

row,Compound,"hERG current change (%, negative = inhibition) at 10uM [%]"
1,Cc1cc(C)cc(NC(=O)CCNS(=O)(=O)c2ccc3c(c2)oc(=O)n3C)c1,-1.91
2,CCc1cccc(CC)c1NC(=O)CSc1nc2ccc(N3C(=O)C4C5C=CC(C5)C4C3=O)cc2s1 (stereo not shown),-15.2
3,CN(C)C(=S)Nn1c(-c2ccccc2)nc2ccccc2c1=O,11
4,O=C(C1CCC(=O)N(C2CC2)C1)N(CCO)Cc1ccccc1 (stereo not shown),9.1
5,Cc1ccc(C2CC(c3cccs3)n3nc(N)nc3N2)cc1 (stereo not shown),-19.2
6,Cc1cc(S(=O)(=O)Nc2ccccc2C)ccc1F,-12.3
7,CCOc1ccc(C/C(O)=C2\C(=O)CC(C)(C)CC2=NCC(=O)O)cc1OCC,19.8
8,O=C(Nc1cccc(F)c1)Nc1ccc2c(c1)C(=O)OC2,7.83
9,C[N+]1=C(/C=C/Nc2ccccc2)C(C)(C)c2ccccc21.[O-][Cl+3]([O-])([O-])[O-],-81.8
10,Cc1cc(O)c(NC(=S)NC(=O)c2ccc(-c3ccc(Cl)cc3)o2)cc1C,1.28
11,CN(Cc1nc(-c2ccc3c(c2)OCO3)no1)CC1(N2CCOCC2)CCCCC1,-3.56
12,Cc1cccc(OCCSc2nncn2C)c1,6.64
13,CC(C)CCNC(=O)c1c(CSc2ccc(Cl)cc2)noc1C(=O)NCc1ccccc1,10.6
14,CNS(=O)(=O)c1cc(N)ccc1C,3.48
15,Cc1ccc(CNC(=O)CS(=O)CC(=O)O)cc1 (stereo not shown),-16.6
16,Cc1cccc(C)c1NS(=O)(=O)c1ccc2c(c1)C(=O)c1ccccc1C2=O,-26
17,CCc1ccc(NC(=O)CSc2nc3ccccc3c(=O)n2CCCC(=O)N2CCCC2)cc1,-27.9
18,CC(=O)N1CCC(C(=O)Nc2ccc3c(c2)CCC3)CC1,3.21
19,CCC(C)(C)n1nnnc1C(C(C)C)N(CCN1CCOCC1)Cc1cc2cccc(C)c2[nH]c1=O (stereo not shown),-11.8
20,O=C(CN1CCC(O)(c2ccccc2)CC1)Nc1ccc2c(c1)OCCO2,6.68
21,Cc1cc(C)c(OCC(O)CNC(C)(C)C)c(C)c1.Cl (stereo not shown),2.59
22,CCN1C(=O)c2cccc3c(S(=O)(=O)NCc4cccnc4)ccc1c23,-3.21
